In PubChem BioAssay AID2546 (National Center for Advancing Translational Sciences (NCATS), 2010):
Hit rate of the full screen: of about 310,000 compounds, about 11,000 (3.5%) were called active. This list was built around the results that the source calls inconclusive (neither active nor inactive); the mix of calls is not that of the screen. The call rests on the fitted dose curve; in most records, active means well fitted inhibition curve with a large enough effect; inconclusive means small, poorly fitted or top-dose-only effect, or effect the other way; inactive means flat fitted curve, though single readings scatter. No potency is given beside an inconclusive call; the fits are too rough.

Assay: VP16 counterscreen qHTS for inhibitors of ROR gamma transcriptional activity;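 further: Gal4-VP16 expression switched on by copper sulfate through the metallothionein promoter; nearly all actives have a fitted effect of over 50% in size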
Settings: Drosophila S2 Gal4-VP16 UAS-luciferase, luminescence, 20 h; activity, negative = inhibition: at 53.6 µM (top of the series)
On the % scale 0 is the no-effect control and ±100 the full control effect; potency means the concentration at half of the fitted maximal effect; tags describe the fitted curve by direction and shape.

| Structure (SMILES) | Potency | activity, negative = inhibition |
| --- | --- | --- |
| CC(C)n1c(-c2ccc(N(C)C)cc2)nc2ccccc21 | active: 20 µM | – |
| CCCCC(CC(O)COCCC)c1n[nH]c(=S)n1-c1ccccc1 (stereo not drawn) | inconclusive [inhibitor, single point] | – |
| CSc1ccc(/C=C(\C#N)C(=O)NC2CCCCC2C)cc1 (stereo not drawn) | inconclusive [inhibitor, single point] | – |
| Cc1snc(SCC(=O)N/N=C(\N)COc2cccc(C(F)(F)F)c2)c1C#N | active: 6.31 µM | – |
| COc1cc(C(=O)NC2CCCc3ccccc32)cc(OC)c1C (stereo not drawn) | inconclusive [inhibitor, single point] | – |
| CCCCc1ccc(-n2nnnc2SCC(=O)Nc2cc(OC)c([N+](=O)[O-])cc2C)cc1 | inconclusive [inhibitor, single point] | – |
| Cc1c(CCO)c(=O)[nH]n1C(=O)c1ccc(F)cc1 | active: 11.2 µM | – |
| CC(C)(C)c1ccc(Cn2c(=O)cnc3ccccc32)cc1 | inconclusive [inhibitor, single point] | – |
| CS(=O)(=O)N1N=C(c2ccco2)CC1c1ccc(Br)cc1 (stereo not drawn) | inconclusive [activator, single point] | – |
| O=C(Nc1cccnc1)c1ccc(Oc2ccccc2)cc1 | inconclusive [activator, single point] | – |
| Cc1ccc(C)c(N2CCN(C(=O)CCCN3C(=S)NC(C)(C)CC3C)CC2)c1 (stereo not drawn) | active: 4.47 µM | – |
| O=S(=O)(Nc1ncccn1)c1ccc(NC(=S)Nc2cccc(Cl)c2)cc1 | inconclusive [inhibitor, single point] | – |
| CCOc1ccc(NC(=O)NNC(=O)c2cccnc2)cc1 | – | inactive: 0.233% |
| O=C1Nc2ccccc2/C1=C/c1ccc([N+](=O)[O-])cc1 | inconclusive [inhibitor, single point] | – |
| CC(=O)N1c2ccccc2Nc2ccccc21 | inconclusive [activator, single point] | – |
| COCC(C)n1c(C)cc(C(=O)Cn2c(=O)oc3ccccc32)c1C (stereo not drawn) | inconclusive [inhibitor, single point] | – |
| O=C(CSc1nc2ccc(Cl)cc2[nH]1)NC1CCCc2ccccc21 (stereo not drawn) | – | inactive: -3.59% |
| Cc1ccc(C(=O)c2ccc([N+](=O)[O-])cc2)cc1 | – | inactive: -8.27% |
| O=C(CCSc1nc2ccccc2s1)N/N=C/c1c(O)ccc2ccccc12 | active: 1 µM | – |
| COC(=O)c1sccc1NC(=S)N1CCCCC1 | – | inactive: -4.85% |
| COc1ccc(/C=N/OCC(=O)Nc2nc3ccccc3s2)cc1OC | inconclusive [inhibitor, single point] | – |
| Fc1ccc(NC(=S)N2CCN(C/C=C/c3ccccc3)CC2)c(F)c1 | inconclusive [inhibitor, single point] | – |
| Cc1ccsc1C1C(C#N)=C(N)N(N(C)C)C2=C1C(=O)CCC2 (stereo not drawn) | inconclusive [inhibitor, full curve, poor fit] | – |

| Structure (SMILES) | Potency | activity, negative = inhibition |
| --- | --- | --- |
| C[C@H](NC(=O)c1nc[nH]c1C(=O)N[C@@H](CCCCNC(=O)OC(C)(C)C)C(=O)OC(C)(C)C)C(=O)OC(C)(C)C | active: 12.6 µM | – |
| COCCN(C(=S)Nc1c(C)cccc1C)C(C)c1cccnc1 (stereo not drawn) | inconclusive [activator, single point] | – |
| COc1ccccc1CNc1ncnc2sccc12 | inconclusive [inhibitor, single point] | – |
| COc1ccc(-c2nc(CS(=O)(=O)CC(=O)NCc3ccccc3OC)c(C)o2)cc1 | – | inactive: -13.1% |
| CCCCc1ccc(Nc2nc(N3CCOCC3)nc(N3CCOCC3)n2)cc1 | – | inactive: -0.349% |
| CC1(C)CC(Nc2ccc(Nc3ccccc3)cc2)CC(C)(C)N1 | inconclusive [inhibitor, single point] | – |
| COc1ccc(C(O)C2=CCCC2=O)cc1 (stereo not drawn) | inactive | – |
| CC1C(=O)N(c2ccc(S(=O)(=O)N(C)C)cc2)C1(/C=C/c1ccccc1)C(=O)NC1CCCC1 (stereo not drawn) | inconclusive [activator, single point] | – |
| O=C(c1csnn1)N1CCC[C@@]2(CCN(c3ncccn3)C2)C1 | – | inactive: -4.87% |
| Cc1ccc(S(=O)(=O)Nc2cc(C)cn(Cc3ccccc3)c2=O)cc1 | active: 14.1 µM | – |
| O=C(CN1C(=O)/C(=C/c2ccc(F)cc2)SC1=S)N1CCN(CCc2ccccn2)CC1 | inconclusive [inhibitor, single point] | – |
| COc1ccc(C(=O)c2sc3nc(C)cc(-c4cccs4)c3c2N)cc1OC | inconclusive [inhibitor, single point] | – |
| COC(=O)c1ccc(N2CCC(c3cc(-c4ccc(OC)cc4)n[nH]3)CC2)c([N+](=O)[O-])c1 | inconclusive [inhibitor, single point] | – |
| COc1ccc(-n2nnc3c(SCC(=O)NCC4CCCO4)ncnc32)cc1 (stereo not drawn) | inconclusive [inhibitor, single point] | – |
| Cc1cccc(Oc2nc(CN3CCOCC3)nc3sc4c(c23)CCCC4)c1 | inconclusive [inhibitor, single point] | – |
| COc1ccc(OC)c(NC(=O)CSc2ncnc3c2cnn3-c2ccccc2Cl)c1 | active: 1.41 µM | – |
| CC(=O)Nc1ccc(S(=O)(=O)N2CCC(c3nnc(-c4ccc(C)cc4)o3)CC2)cc1 | inconclusive [inhibitor, single point] | – |
| CCc1cc(CNC(=O)CCc2nnc(CCCc3ccccc3)o2)on1 | inconclusive [activator, full curve, poor fit] | – |
| O=C1/C(=C/c2ccncc2)SC(=S)N1N1CCOCC1 | inconclusive [inhibitor, single point] | – |
| CCOC(=O)c1[nH]cnc1C(=O)NCc1ccccc1 | – | inactive: -5.27% |
| Cc1ccc(-c2cc(C(=O)N3CCOCC3)no2)cc1 | active: 14.1 µM | – |
| Cc1ccc(-n2c(C)cc(/C=c3/sc4nc5ccccc5n4c3=O)c2C)cc1 | inconclusive [inhibitor, full curve] | – |
| CCS(=O)(=O)c1ncc(Cl)c(C(=O)Nc2ccc(S(=O)(=O)N3CCC(C)CC3)cc2)n1 | active: 4.47 µM | – |

| Structure (SMILES) | Potency | activity, negative = inhibition |
| --- | --- | --- |
| CCCNC(=O)OC[C@H]1O[C@@H](CCO/N=C2/[C@H]3O[C@@H]3[C@@H](O)[C@H]3[C@H]2CCn2c(=O)n(-c4ccccc4)c(=O)n23)C=C[C@@H]1Oc1ccc(OC)cc1 | – | inactive: 0.729% [at 10 µM] |
| Cc1ccc(C)c(OCC(=O)Nc2cc(C)on2)c1 | inconclusive [activator, single point] | – |
| CNC(=O)c1cc2c(ccc3ccccc32)o1 | inconclusive [activator, single point] | – |
| O=S(=O)(O)c1ccc2c(N=Nc3ccc(S(=O)(=O)O)c4ccccc34)c(O)c(S(=O)(=O)O)cc2c1 | inconclusive [inhibitor, partial curve] | – |
| CC(C)c1nc2sc3c(=O)[nH]c(=S)[nH]c3c2c2c1CCC2 | inconclusive [activator, single point] | – |
| COc1cccc(C2NC(=O)NC(C)=C2C(=O)OCC2CCCCC2)c1 (stereo not drawn) | – | inactive: -4.65% |
| CCN(c1ccccc1)S(=O)(=O)c1ccc(NC(=S)NC(=O)c2cccs2)cc1 | active: 7.08 µM | – |
| CC1CCCC(C)N1C(=O)COc1ccc(C(=O)Nc2ccccc2N2CCOCC2)cc1 (stereo not drawn) | – | inactive: -5.99% |
| CCN(CC)C(=O)c1[nH]cnc1C(=O)N[C@@H](Cc1ccccc1)C(=O)OCc1ccccc1 | inconclusive [inhibitor, single point] | – |
| CC[C@@H]1/C=C(\C)C[C@H](C)C[C@H](OC)[C@H]2O[C@@](O)(C(=O)C(=O)N3CCCC[C@H]3C(=O)O[C@H](/C(C)=C/[C@@H]3CC[C@@H](O)[C@H](OC)C3)[C@H](C)[C@@H](O)CC1=O)[C@H](C)C[C@@H]2OC | inconclusive [inhibitor, single point] | – |
| Cc1ccc(-c2nc3ncccn3c2Nc2ccc3c(c2)OCCO3)o1 | inconclusive [inhibitor, full curve, poor fit] | – |
| COc1ccc(OCC(=O)NNC(=O)c2ccccn2)cc1 | inconclusive [inhibitor, single point] | – |
| O=C(Nc1ccccc1)Nc1ccc2snnc2c1 | inconclusive [inhibitor, single point] | – |
| C=CCNC(=S)Nc1ccc(N(C)C)cc1 | inconclusive [activator, partial curve] | – |
| COc1ccc(C(=O)NC(=S)N2CCOCC2)cc1[N+](=O)[O-] | active: 2.82 µM | – |
| C=CCn1c(SCC(=O)NCc2ccco2)nc2sc3c(c2c1=O)CCC3 | inconclusive [inhibitor, single point] | – |
| CCN(CC)S(=O)(=O)c1ccc(NC(=O)Nc2cccc(C(F)(F)F)c2)cc1 | inconclusive [inhibitor, single point] | – |
| Cc1ccc(C(=O)NC(=S)Nc2cccc3c(C)cc(C)nc23)cc1 | active: 4.47 µM | – |
| Cc1c(C)[n+](=O)c(-c2ccco2)c(C)n1[O-] | – | inactive: -3.29% |
| CCN1CCN(C2=C(NS(=O)(=O)c3ccc(Br)cc3)C(=O)c3ccccc3C2=O)CC1 | inconclusive [inhibitor, single point] | – |
| CC(Cc1ccccc1)N1C(=O)c2cccc([N+](=O)[O-])c2C1=O (stereo not drawn) | inconclusive [activator, single point] | – |
| COc1cccc(OCc2cc(C(=O)N3CCN(c4ccccc4O)CC3)no2)c1 | inconclusive [activator, single point] | – |
